{"source": "patent US20230272055A1", "about": "“ANTI-MUTANT CALRETICULIN (CALR) ANTIBODIES AND USES THEREOF” (Incyte Corporation, priority 2021, published 2023)", "molecules": {"B1": {"name": "64 (antibody)", "heavy": "EVQLVQSGAEVKKPGASVKVSCKVSGYTLTELSMQWVRQAPGKGLEWMGGFDPDDAETMYAEKFQGRLTVTEDTSTDTVYMELSSLRSEDTAVYFCATSPGYDFFDYWGQGTLVTVSSASTKGPSVFPLAPSSKSTSGGTAALGCLVKDYFPEPVTVSWNSGALTSGVHTFPAVLQSSGLYSLSSVVTVPSSSLGTQTYICNVNHKPSNTKVDKRV[omitted - human IgG1 Fc with changes]", "light": "QSALTQPASVSGSPGQSITISCTGTSSDVGGYNYVSWYQQHPGKAPKLMIYEVSNRPSGVSNRFSGSNSGNTATLTINRVEAGDEADYYCQVWDSSNDLLIFGGGTKLTVLGQPKAAPSVTLFPPSSEELQANKATLVCLISDFYPGAVTVAWKADSSPVKAGVETTTPSKQSNNKYAASSYLSLTPEQWKSHRSYSCQVTHEGSTVEKTVAPTECS"}, "B2": {"name": "138 (antibody)", "heavy": "EVQLVQSGAEVKKPGASVKVSCKVSGYTLTELSMQWVRQAPGKGLEWMGGFDPDDAETMYAEKFQGRLTVTEDTSTDTVYMELRSLTSEDTALYFCATSPGYDFFDYWGQGTLVTVSSASTKGPSVFPLAPSSKSTSGGTAALGCLVKDYFPEPVTVSWNSGALTSGVHTFPAVLQSSGLYSLSSVVTVPSSSLGTQTYICNVNHKPSNTKVDKRV[omitted - human IgG1 Fc with changes]", "light": "SYVLTQPPSVSVAPGKTARITCGGDNIGSKSVHWYQQKPGQAPVLVVYDDSDRPSGIPERFSGSNSGNTATLTISRVEAGDEADYYCQVWDSSNDLLIFGGGTKLTVLGQPKAAPSVTLFPPSSEELQANKATLVCLISDFYPGAVTVAWKADSSPVKAGVETTTPSKQSNNKYAASSYLSLTPEQWKSHRSYSCQVTHEGSTVEKTVAPTECS"}, "B3": {"name": "189 (antibody)", "heavy": "EVQLVQSGAEVKKPGASVKVSCKVSGYTLTELSMQWVRQAPGKGLEWMGGFDPDDAETMYAEKFQGRLTVTEDTSTDTVYMELSSLRSEDTAVYFCATSPGYDFFDYWGQGTLVTVSSASTKGPSVFPLAPSSKSTSGGTAALGCLVKDYFPEPVTVSWNSGALTSGVHTFPAVLQSSGLYSLSSVVTVPSSSLGTQTYICNVNHKPSNTKVDKRV[omitted - human IgG1 Fc with changes]", "light": "B2 light with K16Q, D25S, N26D, S29D, K30E, S31I, N94S, L96H"}, "B4": {"name": "84 (antibody)", "heavy": "EVQLVQSGAEVKKPGASVKVSCKVSGYTLTELSMQWVRQAPGKGLEWMGGFDPDDAETMYAEKFQGRLTVTEDTSTDTVYMELSSLRSEDTAVYFCATSPGYDFFDYWGQGTLVTVSSASTKGPSVFPLAPSSKSTSGGTAALGCLVKDYFPEPVTVSWNSGALTSGVHTFPAVLQSSGLYSLSSVVTVPSSSLGTQTYICNVNHKPSNTKVDKRV[omitted - human IgG1 Fc with changes]", "light": "B2 light with D25N"}, "B5": {"name": "79 (antibody)", "heavy": "EVQLVQSGAEVKKPGASVKVSCKVSGYTLTELSMQWVRQAPGKGLEWMGGFDPDDAETMYAEKFQGRLTVTEDTSTDTVYMELRSLTSEDTALYFCATSPGYDFFDYWGQGTLVTVSSASTKGPSVFPLAPSSKSTSGGTAALGCLVKDYFPEPVTVSWNSGALTSGVHTFPAVLQSSGLYSLSSVVTVPSSSLGTQTYICNVNHKPSNTKVDKRV[omitted - human IgG1 Fc with changes]", "light": "B2 light with D25N"}, "B6": {"name": "173 (antibody)", "heavy": "EVQLVQSGAEVKKPGASVKVSCKVSGYTLTELSMQWVRQAPGKGLEWMGGFDPDEGETMYAEKFQGRLTVTEDTSTDTVYMELRSLTSEDTALYFCATSPGYDFFDYWGQGTLVTVSSASTKGPSVFPLAPSSKSTSGGTAALGCLVKDYFPEPVTVSWNSGALTSGVHTFPAVLQSSGLYSLSSVVTVPSSSLGTQTYICNVNHKPSNTKVDKRV[omitted - human IgG1 Fc with changes]", "light": "B2 light with K16Q, D25S, N26D, S29D, K30E, S31I, V77A, E78Q, N94S, L96H"}, "B7": {"name": "70 (antibody)", "heavy": "EVQLVQSGAEVKKPGASVKVSCKVSGYTLTELSMQWVRQAPGKGLEWMGGFDPDDGETMYAEKFQGRLTVTEDTSTDTVYMELSSLRSEDTAVYFCATSPGYDFFDYWGQGTLVTVSSASTKGPSVFPLAPSSKSTSGGTAALGCLVKDYFPEPVTVSWNSGALTSGVHTFPAVLQSSGLYSLSSVVTVPSSSLGTQTYICNVNHKPSNTKVDKRV[omitted - human IgG1 Fc with changes]", "light": "SYVLTQPPSVSVAPGKTARITCTGTSSDVGGYNYVSWYQQKPGQAPVLVVYEVSNRPSGIPERFSGSNSGNTATLTISRVEAGDEADYYCQVWDSSNDLLIFGGGTKLTVLGQPKAAPSVTLFPPSSEELQANKATLVCLISDFYPGAVTVAWKADSSPVKAGVETTTPSKQSNNKYAASSYLSLTPEQWKSHRSYSCQVTHEGSTVEKTVAPTECS"}, "B8": {"name": "178 (antibody)", "heavy": "EVQLVQSGAEVKKPGASVKVSCKVSGYTLTELSMQWVRQAPGKGLEWMGGFDPDEGETMYAEKFQGRLTVTEDTSTDTVYMELSSLRSEDTAVYFCATSPGYDFFDYWGQGTLVTVSSASTKGPSVFPLAPSSKSTSGGTAALGCLVKDYFPEPVTVSWNSGALTSGVHTFPAVLQSSGLYSLSSVVTVPSSSLGTQTYICNVNHKPSNTKVDKRV[omitted - human IgG1 Fc with changes]", "light": "B2 light with K16Q, D25S, N26D, S29D, K30E, S31I, V77A, E78Q, N94S, L96H"}, "B9": {"name": "69 (antibody)", "heavy": "EVQLVQSGAEVKKPGASVKVSCKVSGYTLTELSMQWVRQAPGKGLEWMGGFDPDDAETMYAEKFQGRLTVTEDTSTDTVYMELRSLTSEDTALYFCATSPGYDFFDYWGQGTLVTVSSASTKGPSVFPLAPSSKSTSGGTAALGCLVKDYFPEPVTVSWNSGALTSGVHTFPAVLQSSGLYSLSSVVTVPSSSLGTQTYICNVNHKPSNTKVDKRV[omitted - human IgG1 Fc with changes]", "light": "B7 light"}, "B10": {"name": "75 (antibody)", "heavy": "EVQLVQSGAEVKKPGASVKVSCKVSGYTLTELSMQWVRQAPGKGLEWMGGFDPDDGETMYAEKFQGRLTVTEDTSTDTVYMELRSLTSEDTALYFCATSPGYDFFDYWGQGTLVTVSSASTKGPSVFPLAPSSKSTSGGTAALGCLVKDYFPEPVTVSWNSGALTSGVHTFPAVLQSSGLYSLSSVVTVPSSSLGTQTYICNVNHKPSNTKVDKRV[omitted - human IgG1 Fc with changes]", "light": "B2 light with D25N"}, "B11": {"name": "174 (antibody)", "heavy": "EVQLVQSGAEVKKPGASVKVSCKVSGYTLTELSMQWVRQAPGKGLEWMGGFDPDDAETMYAEKFQGRLTVTEDTSTDTVYMELRSLTSEDTALYFCATSPGYDFFDYWGQGTLVTVSSASTKGPSVFPLAPSSKSTSGGTAALGCLVKDYFPEPVTVSWNSGALTSGVHTFPAVLQSSGLYSLSSVVTVPSSSLGTQTYICNVNHKPSNTKVDKRV[omitted - human IgG1 Fc with changes]", "light": "B2 light with K16Q, D25S, N26D, S29D, K30E, S31I, V77A, E78Q, N94S, L96H"}, "B12": {"name": "180 (antibody)", "heavy": "EVQLVQSGAEVKKPGASVKVSCKVSGYTLTELSMQWVRQAPGKGLEWMGGFDPDDGETMYAEKFQGRLTVTEDTSTDTVYMELRSLTSEDTALYFCATSPGYDFFDYWGQGTLVTVSSASTKGPSVFPLAPSSKSTSGGTAALGCLVKDYFPEPVTVSWNSGALTSGVHTFPAVLQSSGLYSLSSVVTVPSSSLGTQTYICNVNHKPSNTKVDKRV[omitted - human IgG1 Fc with changes]", "light": "B2 light with K16Q, D25S, N26D, S29D, K30E, S31I, N94S, L96H"}, "B13": {"name": "179 (antibody)", "heavy": "EVQLVQSGAEVKKPGASVKVSCKVSGYTLTELSMQWVRQAPGKGLEWMGGFDPDDAETMYAEKFQGRLTVTEDTSTDTVYMELSSLRSEDTAVYFCATSPGYDFFDYWGQGTLVTVSSASTKGPSVFPLAPSSKSTSGGTAALGCLVKDYFPEPVTVSWNSGALTSGVHTFPAVLQSSGLYSLSSVVTVPSSSLGTQTYICNVNHKPSNTKVDKRV[omitted - human IgG1 Fc with changes]", "light": "B2 light with K16Q, D25S, N26D, S29D, K30E, S31I, V77A, E78Q, N94S, L96H"}, "B14": {"name": "58 (antibody)", "heavy": "EVQLVQSGAEVKKPGASVKVSCKVSGYTLTELSMQWVRQAPGKGLEWMGGFDPDEGETMYAEKFQGRLTVTEDTSTDTVYMELRSLTSEDTALYFCATSPGYDFFDYWGQGTLVTVSSASTKGPSVFPLAPSSKSTSGGTAALGCLVKDYFPEPVTVSWNSGALTSGVHTFPAVLQSSGLYSLSSVVTVPSSSLGTQTYICNVNHKPSNTKVDKRV[omitted - human IgG1 Fc with changes]", "light": "B1 light"}, "B15": {"name": "63 (antibody)", "heavy": "EVQLVQSGAEVKKPGASVKVSCKVSGYTLTELSMQWVRQAPGKGLEWMGGFDPDEGETMYAEKFQGRLTVTEDTSTDTVYMELSSLRSEDTAVYFCATSPGYDFFDYWGQGTLVTVSSASTKGPSVFPLAPSSKSTSGGTAALGCLVKDYFPEPVTVSWNSGALTSGVHTFPAVLQSSGLYSLSSVVTVPSSSLGTQTYICNVNHKPSNTKVDKRV[omitted - human IgG1 Fc with changes]", "light": "B1 light"}}, "note": "Positions count from the first letter of the chain named."}
{"target": "T1, recombinant MBP-mutCALR Type 1 fusion protein (Homo sapiens, UniProt P27797, DEL40-40)", "T1 construct": "His6 (N); purchased Cepter (cepterbiopartners.com), custom made", "test": "Biacore SPR binding kinetics, Experiment 2 (parental and variant antibodies)", "conditions": "Biacore 8K, 25° C., 1:1 binding model", "protocol": "The amino acid sequence of recombinant MBP-mutCALR Type 1 fusion protein used in Experiments 1 and 2 is:\nExperiment 2: Recombinant MBP-mutCALR Type 1 fusion protein was custom made at Cepter (cepterbiopartners.com). Data for the interaction of antibodies with recombinant mutCALR protein were collected at 25° C. on a Biacore 8K instrument (Cytiva, Marlborough, Mass.), and all reagents were obtained from Cytiva unless otherwise specified. The experiments were conducted using Tris-buffered saline (pH 7.2), 0.005% Surfactant P20, 1 mM CaCl2) as running buffer. To prepare the capture surfaces, anti-human IgG (Fc) antibodies (Product #29234600) was amine-coupled onto a CM4 chip (Product #BR100534) under standard conditions using an Amine Coupling Kit (Product #BR100050). Anti-mutCALR antibodies were captured onto the chip surface by injecting over flow cell 2 only at a flow rate of 10 μL/min for 30 seconds. […] Recombinant MBP-mutCALR Type 1 fusion protein was prepared at nominal concentrations of 0, 0.75, 2.22, 6.67, 20, and 60 nM and injected over both flow cells 1 and 2 for 150 seconds at a flow rate of 69 L/min, followed by a 230-second dissociation phase at the same flow rate. The kinetics parameters were obtained by applying 1:1 binding model to fit the data from multiple-cycle injection experiments using Biacore Insight Evaluation software.", "units": {"ka": "M⁻¹ s⁻¹", "kd": "s⁻¹"}}
{"molecule": "B1", "ka": "3.89e+06", "kd": 0.00248}
{"molecule": "B2", "ka": "7.86e+06", "kd": 0.00688}
{"molecule": "B3", "ka": "1e+07", "kd": 0.0153}
{"molecule": "B4", "ka": 892000, "kd": 0.0018}
{"molecule": "B5", "ka": "4.53e+06", "kd": 0.00631}
{"molecule": "B6", "ka": "5.35e+06", "kd": 0.00349}
{"molecule": "B7", "ka": 987000, "kd": 0.000953}
{"molecule": "B8", "ka": "1.02e+06", "kd": 0.00123}
{"molecule": "B9", "ka": "9.94e+06", "kd": 0.00527}
{"molecule": "B10", "ka": "6.12e+06", "kd": 0.0039}
{"molecule": "B11", "ka": "7.8e+06", "kd": 0.0041}
{"molecule": "B12", "ka": "1e+07", "kd": 0.127}
{"molecule": "B13", "ka": "1e+07", "kd": 0.00681}
{"molecule": "B14", "ka": "6.76e+06", "kd": 0.00232}
{"molecule": "B15", "ka": "2.83e+06", "kd": 0.000691}
